# Assay results: the supplement of paper PMC11417369
# Some of the results follow.
# System: PfAP2-HC AP2 domain (GST-tagged)
# Experiment: gcPBM binding intensity (ln(normalized median fluorescence intensity)); higher = stronger DNA binding
# In short: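 An Agilent 4 × 180k array of primer-extended double-stranded 36-bp intergenic genomic probes, with negative controls, was incubated for 1 h with GST-tagged P. falciparum DNA-binding domains expressed in E. coli. Alexa488 anti-GST antibody detected bound protein, scanned at 488 nm. Binding intensity is the highest Masliner-normalised natural-log median intensity across replicate spots of either probe orientation.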
row,Sequence,gcPBM binding intensity (ln)
1,TATTTTTTCCTTTGTTTTTTAAACTATCTTAACTAA [XGTACX_negctrl_site519],9.53
2,AAATAAATAAAAAACACACACAAATAAATAAATATA [CACACA_site2249],10.7
3,TTAAAATAAAGAGCAGTGCGCATATTTTGTTATTAT [GTGCAC_site9753],9.73
4,ATAAAAAAATATGTAAACATATATATGTATTTATGT [CACACA_negctrl_site1517],9.87
5,AAACAATTTTTATTTTGTACATAACAATATATTTAT [XGTACX_site1375],9.74
6,TTTTTATATTTTATTAGTACTTATTATATATATAAT [XGTACX_site4900],9.7
7,CATAAAAATGTATCAAGTACACATTTATTTATCCAT [XGTACX_site152],9.67
8,GTATAACACAAGTGAAGTACAGGGGTAAACATTTAT [XGTACX_site3203],9.93
9,TACAGATAAAAGTACACACACACACCGATATATATA [CACACA_site4675],10.6
10,AATTTAAATTCATCACGTACATACGTGAATATACAC [XGTACX_site5220],9.76
11,ATTTTACATATTTGCACACATATATTTATATACATA [CACACA_site854],10
12,TTATTTGTTTAATATGCATGCTAAAAGGGTTGATGT [TGCATGCA_site581],9.56
13,GAGTAAAACAAATATACACACCATAAAGTTATAAAA [CACACA_site5008],10.1
14,AATATAAAAATGCACACACACAAAAAAAAAAAAAAA [CACACA_site6546],10.9
15,TTTAAAATATTGTATTGTACGCAATAAAAAATACCA [XGTACX_site182],9.65
16,ATAAGCATCTTTTGTGTGCACATAACAAAAAAAAAA,9.85
17,ATTAAATAAAATCATGCACACAATATATATTTTAAG [CACACA_site2495],9.71
18,TCTAACATATCTTTAATACACACTTAAAAAAGTACT [CACACA_site652],9.44
19,ATTTATCTATATATATGTACATATTATTTTTGTGGT [XGTACX_site7390],9.98
20,GATATACAATTTAAGTGTACTATAATAAAATATATA [XGTACX_site3013],9.6
21,ATAAAAAAATATAAATGTACATATATATATATATAT [XGTACX_site5620],9.82
22,TATATTAATTCGTTTTGTACACACATAATGAATAAT [XGTACX_site4618],9.78
23,TGAGAAAGCGCATATTGTACTATATATTTTAACCAC [XGTACX_site4098],9.69

row,Sequence,gcPBM binding intensity (ln)
1,AATCCATTCTATTTTTTACACACGTATGTAAATATT [CACACA_site8860],9.99
2,AATATATATGGACATGCATGGACATAATAATCTATT [TGCATGCA_site838],9.79
3,GAAAATAATGTTACATGTACGAATATGTAACTATTG [XGTACX_site6833],9.57
4,AAATACATATATACATGTACATAAATATATATATAT [XGTACX_site5367],9.72
5,ATAGATATACATATCACACATATATATATATATATA [CACACA_site4985],9.59
6,TAAGGTAGTTCTGTATCACACACATATATATATATA [CACACA_site8693],10.2
7,TTTGTAATAACATATGCATGTTCAAAAAATAAAATA [TGCATGCA_site817],9.56
8,ATTTTTTTATAAAATTTTTTATATATTAAATATTAT [CACACA_negctrl_site135],9.42
9,ACGTTTTATTTTTATTGTACTCACATTGAAATGAAT [XGTACX_site6094],10
10,ATATATTTATACATTTGTACATATACATATTTCTGA [XGTACX_site3982],9.64
11,ATTTTTTTTGTAAAAGTGCATATATATATATATATA,9.53
12,AAAATTGTGCTTTCACGGACACAAGATCGAAATAGA [XGTACX_site4068],9.73
13,ATATAAATATAAACATGTACATATATATATATATAT [XGTACX_site2824],9.7
14,GAAACGTTTTTGAGTAGTACACACACAATAAGGATG [XGTACX_site6809],10.2
15,AAATTTATATAAAACAGTACAATTAAAAAAAAAATA [XGTACX_site8015],9.68
16,ATATATATATATGTGTGTACTTATTTATTTATTTGT [XGTACX_site549],9.94
17,TTTTCTTAATATTTATGTATATATATAATATGATAT [TGCATGCA_negctrl_site572],9.61
18,TAATAAATCCTATATAGTACATATATGCAAGTATGT [XGTACX_site3955],9.68
19,ATGTAACACATATTTGGTACAGATAGATAAAAGTAT [XGTACX_site8291],9.87
20,TTTTTAAATAACCTATATATTATTATGAAACATAAA [CACACA_negctrl_site916],9.22
21,GTATAATATATTTATAGTACATAATTATTTATAAAT [XGTACX_site1826],9.67
22,TATATATATATATTCACACATAAAAATAAAATAAAA [CACACA_site4774],9.74
23,ATATTATGTGATTGTGCACACTGGAGATTTTTTTTA [CACACA_site1453],10

row,Sequence,gcPBM binding intensity (ln)
1,CCCGTAAATACAAAAAGTACAAAAGTTCATCTTATA [XGTACX_site1154],9.5
2,CAATATTATTATATTTGTACACATGCGTATTTTTTA [XGTACX_site4154],9.86
3,TTAATATTGTATCCAAGTACACAAATTATTATATTT [XGTACX_site8067],9.61
4,TAATAATAATATAAAATACACACCTATTATTTTTAC [CACACA_site4003],9.77
5,CATGATATATAAATATGTACATATATATATATATAT [XGTACX_site1760],10.3
6,ACATTAATATAAAGCACACATATATATAATATATAT [CACACA_site508],9.74
7,ATTGATTTTTAATATACACACATAAGTACCACAAAA [CACACA_site339],9.87
8,AAAAATATAAACTGCACACACAAAAAAAAAAGAGAA [CACACA_site1367],10.3
9,TATAACATATTTATATATGACATTATCTATTCATTT [CACACA_negctrl_site864],9.61
10,GCCTATATGTTTAGTTGTACTCCTAATATTATTTGT [XGTACX_site6060],9.84
11,CAAATTATTTCGAGGTGTACTTTTTTATATTATATT [XGTACX_site8309],9.79
12,CCTAATTTTTTTAGTTGTACTTTTTTTTTTTTTTAT [XGTACX_site7948],9.58
13,AATGTGTTCATATATGCACACGCATATATATTATTG [CACACA_site9274],9.79
14,TTTATAAATTGACACACACACATGTGAACATAAAAA [CACACA_site6978],10.1
15,AATTATATATTATCATGTACAAATATAGTAATACAA [XGTACX_site6845],9.68
16,AAAAAAAAAAAAAATAGTACGTAACTATAATTTCCT [XGTACX_site2457],9.65
17,AAATTATAAGTAAAAAGTACTTAATATATAATAAAC [XGTACX_site6065],9.74
18,CTTATACTTCTACATCGTACAAAAGATGGTATAATT [XGTACX_site2698],9.55
19,TAACTTAAATAATACATACACACATGTACATACAGA [CACACA_site1594],10.2
20,TATAATTTTTTTTGGGTGCTTGGGTAAATTTTATTA,10
21,CACGAAAAAAAAAAATGTACATAAAAATATGATACA [XGTACX_site2536],9.48
22,AAAAAAAAAAAAAAAAAAAAAGGACGGATGGATGGA [GTGCAC_negctrl_site527],9.62
23,TCTCATTTCAACAACAGTACATATCTATCTGTGTAT [XGTACX_site6897],9.75

row,Sequence,gcPBM binding intensity (ln)
1,GAAAGAGAAATATATACACACATATTTATATTTTTA [CACACA_site2066],9.83
2,ATACGTATATAATATACATGCATATATAGCACATAC [TGCATGCA_site376],9.83
3,ATAAAAAAAAAAAAAAATGAAGCATCACCGTGTAAT [XGTACX_negctrl_site288],9.65
4,TTTAATATGAATTTATGTACATATATATATATATAT [XGTACX_site6337],9.72
5,TATATTAAAAAAAAATGTACATATATATAATATATA [XGTACX_site1935],9.5
6,ATTTTTATTTTCTTTACACACCACATAACTTTTTTT [CACACA_site7826],9.94
7,ATATATATATATATATGTACATATATCTACATATAT [XGTACX_site7588],10.1
8,ACTTTTTAATATTTTAGTACACAGTAATTCTTACTA [XGTACX_site1425],9.75
9,AAAAAAAAAAAATACACACACATATATATATATATA [CACACA_site2224],10.3
10,TATGTAATAAATAGTACACACACACCGATATATATA [CACACA_site8389],10.3
11,TATAATAATATTATAGTGCATATTATTTATATATAA [GTGCAC_site9820],9.55
12,AAAAAGTGATTAAAATGTACAAAATGCATAAAAGAA [XGTACX_site6625],10
13,AAAGTAAAAAAAAAAACATGCATACGCTAATTTTTA [TGCATGCA_site301],9.38
14,GATATGTTAAATATATGTACATATATAAACCCAAAC [XGTACX_site6601],9.88
15,ATTTTAATACTTTTATATTAAATGTAGCACATCATA [XGTACX_negctrl_site273],9.45
16,CATTTTTTGCTTTCAACACACATACAATATAAATAA [CACACA_site7858],9.62
17,TTATTTATTTAGTAGTGTACTTTTTATATTTATAAT [XGTACX_site5978],9.57
18,TATCATATAAAACATGCACACATATGTACTCTTATA [CACACA_site9249],9.93
19,AAAAAATAAGATTGTACACACATAAATTCTTTGTCA [CACACA_site2089],9.84
20,CGTTCTATTTAGATATGTACTTAAATATATGATCAT [XGTACX_site2936],9.61
